From PubChem BioAssay AID504466 (National Center for Advancing Translational Sciences (NCATS), 2011)
Among all 330,000 compounds or so, about 4,200 (1.3%) were called active. Inconclusive results, whose numbers are uncertain, are shown with a selection of clear calls. Calls come from the whole dose curve; as a rule, active = well fitted activation curve with a large enough effect; inconclusive = small, poorly fitted or top-dose-only effect; inactive = no such curve, though single readings can be large or run the other way. Where the call is inconclusive, the potency comes from a doubtful curve fit.
Potency is the fitted concentration of half-maximal effect; tags give direction and shape of the fitted curve.

Experiment: qHTS screen for small molecules that induce genotoxicity in human embryonic kidney (HEK293T) cells expressing luciferase-tagged ELG1; note: nearly all actives have a fitted effect of over 60% in size; for activity change, positive = activation: % of control where 0% means no effect
Conditions: HEK293T ELG1-luciferase reporter, luminescence, 16 h; series mostly up to 46 µM; activity change, positive = activation: at the top concentration
Procedure, shortened: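 Genotoxicity was scored as increased ELG1-luciferase reporter signal, measured by ONE-Glo luminescence (30 min, room temperature). Compound or vehicle exposure of the HEK293T reporter cells lasted 16 hr at 37°C.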
With `COc1cc(Cl)ccc1OCc1cc(C(=O)N2C[C@@H]3CCC[C@H]2C3)no1` the Potency was active: 2.91 µM.
With `Cc1ccc(N(C(=O)CCCC(=O)Nc2ccccn2)C(C(=O)NC2CCCC2)c2ccc(O)cc2)cc1C` (stereo not drawn) the Potency was inconclusive: 18.3 µM [activator, single point].
With `O=C(OCc1nnc(-c2ccccc2)o1)c1ccc(CO)cc1` the “activity change, positive = activation” value was inactive: 1.48%.
With `C#CCSc1nc2sc3c(c2c(=O)n1C)CCC3` the “activity change, positive = activation” value was inactive: -0.114%.
For `O=C1c2ccc3c4c(ccc(c24)C(=O)N1c1cccc(O)c1)CC3`, the “activity change, positive = activation” value was inactive: 2.2%.
For `O=C(NCC(=O)N1CCN(c2ncccn2)CC1)c1cccs1`, the Potency was inconclusive: 16.4 µM [activator, single point].
With `CC1=CC2=NC(=O)/C(=C\c3cc(C)n(-c4cccc(Cl)c4)c3C)C(=N)N2O1` the “activity change, positive = activation” value was inactive: 4.81%.
In the case of `O=C(CCS(=O)(=O)c1ccccc1)N(CCCN1CCOCC1)c1nc2ccc(F)cc2s1`, the Potency was inconclusive: 23.1 µM [activator, partial curve, poor fit].
With `C[C@H]1CN([C@@H](C)CO)C(=O)Cc2cc(NC(=O)Cc3cn(C)c4ccccc34)ccc2O[C@@H]1CN(C)S(=O)(=O)c1cn(C)cn1` the “activity change, positive = activation” value was inactive: 3.84%.
For `COC(=O)c1ccccc1NC(=O)c1cc(C2CC2)on1`, the Potency was inconclusive: 29.1 µM [activator, single point].
In the case of `Cc1cc(C(=O)O)ccc1N/C=C1\CCCC(C)C1=O` (stereo not drawn), the Potency was inconclusive: 0.651 µM [activator, partial curve].
With `Cc1ccsc1C(=O)OCC(=O)c1cc(C)n(C)c1C` the Potency was inconclusive: 0.291 µM [activator, partial curve, poor fit].
In the case of `COc1ccc2nc(NC(=O)c3c(C)noc3C)sc2c1`, the Potency was inconclusive: 16.4 µM [activator, partial curve, poor fit].
In the case of `O=C(Cc1nc2ccccc2[nH]c1=O)c1ccccc1`, the Potency was inconclusive: 8.2 µM [activator, partial curve, poor fit].
With `C(=N\Nc1ccc2nncn2n1)/c1ccccn1` the Potency was inconclusive: 20.6 µM [activator, single point].
In the case of `Cc1ccc2cn[nH]c2c1NC(N)=S`, the Potency was inconclusive: 16.4 µM [activator, partial curve, poor fit].
In the case of `CC1CCN(C(=O)COC(=O)c2ccc(Br)o2)CC1`, the Potency was inconclusive: 32.6 µM [activator, single point].
For `COC(=O)c1ccc(C2Nc3ccc(/C(C)=N/NC(=O)C(OC)c4ccccc4)cc3C3C=CCC32)cc1` (stereo not drawn), the “activity change, positive = activation” value was inactive: 0.145%.
With `Cc1cc(/C=C2/NC(=O)N(c3ccccc3)C2=O)c(C)n1-c1cccnc1` the Potency was inconclusive: 11.6 µM [activator, partial curve].
With `CCCc1cc(C(=O)OC)c(NC(=O)OCC)s1` the Potency was inconclusive: 11.6 µM [activator, single point].
For `CN1CCN(c2ccc(NC(=S)NC(=O)/C=C/c3ccco3)cc2)CC1`, the Potency was inconclusive: 23.1 µM [activator, partial curve, poor fit].
In the case of `Cc1cc(CNC(=O)Cc2c(F)cccc2Cl)nn1C`, the Potency was inconclusive: 15.8 µM [activator, single point].
For `O=C(O)COc1ccc(Br)cc1/C=N\Nc1ccccn1`, the “activity change, positive = activation” value was inactive: 0.0505%.
With `COc1ccc(C(=O)O/N=C(\N)c2ccc(Cl)cc2)cc1` the Potency was inconclusive: 18.3 µM [activator, partial curve, poor fit].
With `COc1ccc(NC(=O)c2cccs2)cc1O` the Potency was inconclusive: 10 µM [activator, partial curve, poor fit].
In the case of `COc1ccc(Nc2cc3n(c(=O)n2)CCc2cc(OC)c(OC)cc2-3)c(C)c1`, the Potency was inconclusive: 25.9 µM [activator, partial curve, poor fit].
In the case of `CNC(=O)c1cccc2nc3ccccc3nc12`, the Potency was inconclusive: 25.9 µM [activator, single point].
In the case of `CCOC(=O)Cc1csc(NC(=O)c2cccs2)n1`, the Potency was inconclusive: 16.4 µM [activator, partial curve].
For `O=C(O)c1cccc(NC(=S)N/N=C/c2cccnc2)c1`, the Potency was inconclusive: 20.6 µM [activator, partial curve, poor fit].
In the case of `COc1cccc(NC(=O)CCCNC(=O)Cn2cnc3sc(C)c(C)c3c2=O)c1`, the Potency was inconclusive: 20.6 µM [activator, partial curve, poor fit].
With `O=C(CN(C(=O)c1csnn1)c1cccc2c1CCCC2)NCc1ccccc1` the “activity change, positive = activation” value was inactive: -5.73%.
In the case of `C/C(=C/c1ccccc1)C(=O)N1CCN(c2ccc(F)cc2)CC1`, the “activity change, positive = activation” value was inactive: -5.64%.
With `CC(OC(=O)[C@H](C)NC(=O)c1ccccc1Cl)C(=O)NCc1ccc2c(c1)OCO2` (stereo partly drawn) the “activity change, positive = activation” value was inactive: 0.846%.
With `O=C(CCCc1ccccc1)Nc1ccc(Br)cc1F` the Potency was inconclusive: 16.4 µM [activator, partial curve, poor fit].
With `O=C(COC(=O)c1ccc(Cl)nc1)Nc1ccc(N2CCCCC2)cc1` the “activity change, positive = activation” value was inactive: 15.6%.
In the case of `CSCC[C@H](NC(=O)Nc1ccc(S(N)(=O)=O)cc1)C(=O)O`, the “activity change, positive = activation” value was inactive: -1.87%.
In the case of `Oc1ccc(-c2csc(Nc3ccccn3)n2)cc1O`, the Potency was active: 3.66 µM.
With `COc1cc(OC)cc(C(=O)Nc2ccc(-n3cnnn3)c(C)c2)c1` the Potency was inconclusive: 29.1 µM [activator, single point].
In the case of `COc1ccc(C(=O)Nc2ccc3nc(N4CCOCC4)sc3c2)cc1OC`, the “activity change, positive = activation” value was inactive: 4.46%.
With `Cc1ccccc1NCCC(=O)Nc1ccc(Cl)cc1` the “activity change, positive = activation” value was inactive: 7.27%.
For `CC(C)(C)NC(=O)NC(=O)CSc1ccc(S(=O)(=O)N2CCCCC2)cn1`, the “activity change, positive = activation” value was inactive: 1.02%.
With `O=C(NC1CCN(S(=O)(=O)c2cccc(Cl)c2)CC1)C1CCCCC1` the Potency was inconclusive: 29.1 µM [activator, partial curve, poor fit].
For `CCN(CC)c1nc2c(c(=O)[nH]c(=O)n2C)n1CCOc1ccccc1`, the “activity change, positive = activation” value was inactive: 7.39%.
In the case of `CC(C)(C)c1cc(C(=O)C[n+]2ccc(C(=O)NCCCO)cc2)cc(C(C)(C)C)c1O`, the “activity change, positive = activation” value was inactive: 1.42%.
In the case of `COc1cc(CNC(=O)c2cccc(COc3ccc(Cl)cc3)c2)cc(OC)c1`, the Potency was inconclusive: 2.59 µM [activator, partial curve, poor fit].
In the case of `O=[N+]([O-])c1cc(N=Nc2ccc3ccccc3c2)ccc1O`, the Potency was inconclusive: 2.59 µM [activator, full curve, poor fit].
For `Cc1ccnc(Nc2nc(-c3ccc(Cl)cc3)cs2)c1`, the Potency was inconclusive: 4.61 µM [activator, partial curve, poor fit].
In the case of `Cc1csc(=O)n1CC(=O)OCc1cccc2ccccc12`, the Potency was inconclusive: 20.6 µM [activator, partial curve, poor fit].
With `CCc1ccc(OCC(=O)N/N=C(\C)c2ccc(OC(F)F)cc2)cc1` the “activity change, positive = activation” value was inactive: 0.0762%.
In the case of `COc1ccc(NC(=O)CSc2nnc(C)n2Cc2ccccc2)cc1`, the “activity change, positive = activation” value was inactive: -2.03%.
For `CCC(=O)Nc1cc(-c2nn(C)c(=O)c3ccccc23)ccc1N1CCOCC1`, the Potency was inconclusive: 23.1 µM [activator, single point].
In the case of `CC(=O)Nc1ccccc1NC(=O)C/C(C)=N/NC(=O)c1ccccn1`, the Potency was inconclusive: 23.1 µM [activator, single point].
In the case of `CCCC(=O)Nc1cccc(NC(=O)c2ccc3c(c2)OCCO3)c1`, the Potency was inconclusive: 16.4 µM [activator, partial curve, poor fit].
For `Cc1cc(Cl)ccc1OCCCC(=O)NCCN1C(=O)S/C(=C\c2cccnc2)C1=O`, the “activity change, positive = activation” value was inactive: -18.6%.
In the case of `O=C(Nc1ccc(C#Cc2ccccc2)cc1)C1CC1`, the Potency was inconclusive: 6.51 µM [activator, full curve, poor fit].
In the case of `COc1ccc(-n2nnc3c(SCC(=O)Nc4ccc5c(c4)OCCO5)ncnc32)cc1`, the “activity change, positive = activation” value was inactive: 9.01%.
For `CC1Oc2ccccc2C=C1/C=N/NC(=O)c1ccccc1` (stereo not drawn), the Potency was inconclusive: 9.2 µM [activator, partial curve, poor fit].
In the case of `NNC(=O)c1ccc2nc(-c3ccc(Br)cc3)cn2c1`, the Potency was inconclusive: 1.64 µM [activator, partial curve, poor fit].
In the case of `COc1ccc(S(=O)(=O)NC(C)c2ccccc2)cc1C(=O)N1CCCCC1` (stereo not drawn), the Potency was inconclusive: 1.46 µM [activator, partial curve, poor fit].
For `Cc1ccc(-c2csc(=S)n2CC(=O)OCC(=O)NCc2ccc(F)cc2)cc1`, the Potency was inconclusive: 18.4 µM [activator, partial curve].
In the case of `Cc1ccc(OCCSc2ncccn2)c(C)c1`, the Potency was inconclusive: 2.59 µM [activator, full curve].
With `O=C(CSc1ccccn1)NCc1ccc2c(c1)OCO2` the Potency was inconclusive: 20.6 µM [activator, partial curve, poor fit].
With `Cc1cccc(OCc2nc3ccccc3c(=O)n2N)c1` the Potency was inconclusive: 11.2 µM [activator, partial curve, poor fit].
With `COc1ccc(OCCCSc2ncccn2)cc1` the Potency was active: 10 µM.
For `Nc1ncnc(Nc2c(F)cccc2F)n1`, the “activity change, positive = activation” value was inactive: -0.357%.
With `COCO/C=C(\NC(C)=O)c1ccccc1` the “activity change, positive = activation” value was inactive: 7.28%.
For `CCCCN1CCc2c([nH]c3ccc(C)cc23)C1=O`, the “activity change, positive = activation” value was inactive: 26.5%.
For `O=C1/C(=C\c2ccco2)CCC/C1=C\c1ccco1`, the Potency was active: 14.6 µM.
In the case of `Cc1ccc(CC(=O)Nc2ccc(Cl)cn2)cc1`, the Potency was inconclusive: 20.6 µM [activator, single point].
In the case of `O=C(CCCn1c(=S)[nH]c2cc3c(cc2c1=O)OCO3)N1CCN(c2ncccn2)CC1`, the “activity change, positive = activation” value was inactive: -7.39%.
With `O=C(Nc1ccc(N2CCCCC2)cc1)c1ccccc1` the Potency was inconclusive: 0.92 µM [activator, partial curve].
For `O=C(O)c1ccc(NC(=O)c2cn(-c3ccccc3)nc2-c2cccc(Cl)c2)cc1`, the “activity change, positive = activation” value was inactive: -0.503%.
With `CN(C)c1ccc(-c2ccncc2)cc1` the Potency was inconclusive: 11.6 µM [activator, partial curve, poor fit].
